Reference: paper PMC10250389
Results are given in words; binding and its absence hold for the method and conditions named. For some assays here: Binding seen in cells or lysates may run through a third protein. Some results given as binding are weak or reduced against the parent protein; the word gives no strength. For some assays here: Where a sequence is shown, tags or fusion partners need not be part of it.

Chains of the proteins cited; added tags and fusions are not shown. Lines headed by an entry give the natural chain unless they say otherwise; changes in a name come on top.
UniProt P01024: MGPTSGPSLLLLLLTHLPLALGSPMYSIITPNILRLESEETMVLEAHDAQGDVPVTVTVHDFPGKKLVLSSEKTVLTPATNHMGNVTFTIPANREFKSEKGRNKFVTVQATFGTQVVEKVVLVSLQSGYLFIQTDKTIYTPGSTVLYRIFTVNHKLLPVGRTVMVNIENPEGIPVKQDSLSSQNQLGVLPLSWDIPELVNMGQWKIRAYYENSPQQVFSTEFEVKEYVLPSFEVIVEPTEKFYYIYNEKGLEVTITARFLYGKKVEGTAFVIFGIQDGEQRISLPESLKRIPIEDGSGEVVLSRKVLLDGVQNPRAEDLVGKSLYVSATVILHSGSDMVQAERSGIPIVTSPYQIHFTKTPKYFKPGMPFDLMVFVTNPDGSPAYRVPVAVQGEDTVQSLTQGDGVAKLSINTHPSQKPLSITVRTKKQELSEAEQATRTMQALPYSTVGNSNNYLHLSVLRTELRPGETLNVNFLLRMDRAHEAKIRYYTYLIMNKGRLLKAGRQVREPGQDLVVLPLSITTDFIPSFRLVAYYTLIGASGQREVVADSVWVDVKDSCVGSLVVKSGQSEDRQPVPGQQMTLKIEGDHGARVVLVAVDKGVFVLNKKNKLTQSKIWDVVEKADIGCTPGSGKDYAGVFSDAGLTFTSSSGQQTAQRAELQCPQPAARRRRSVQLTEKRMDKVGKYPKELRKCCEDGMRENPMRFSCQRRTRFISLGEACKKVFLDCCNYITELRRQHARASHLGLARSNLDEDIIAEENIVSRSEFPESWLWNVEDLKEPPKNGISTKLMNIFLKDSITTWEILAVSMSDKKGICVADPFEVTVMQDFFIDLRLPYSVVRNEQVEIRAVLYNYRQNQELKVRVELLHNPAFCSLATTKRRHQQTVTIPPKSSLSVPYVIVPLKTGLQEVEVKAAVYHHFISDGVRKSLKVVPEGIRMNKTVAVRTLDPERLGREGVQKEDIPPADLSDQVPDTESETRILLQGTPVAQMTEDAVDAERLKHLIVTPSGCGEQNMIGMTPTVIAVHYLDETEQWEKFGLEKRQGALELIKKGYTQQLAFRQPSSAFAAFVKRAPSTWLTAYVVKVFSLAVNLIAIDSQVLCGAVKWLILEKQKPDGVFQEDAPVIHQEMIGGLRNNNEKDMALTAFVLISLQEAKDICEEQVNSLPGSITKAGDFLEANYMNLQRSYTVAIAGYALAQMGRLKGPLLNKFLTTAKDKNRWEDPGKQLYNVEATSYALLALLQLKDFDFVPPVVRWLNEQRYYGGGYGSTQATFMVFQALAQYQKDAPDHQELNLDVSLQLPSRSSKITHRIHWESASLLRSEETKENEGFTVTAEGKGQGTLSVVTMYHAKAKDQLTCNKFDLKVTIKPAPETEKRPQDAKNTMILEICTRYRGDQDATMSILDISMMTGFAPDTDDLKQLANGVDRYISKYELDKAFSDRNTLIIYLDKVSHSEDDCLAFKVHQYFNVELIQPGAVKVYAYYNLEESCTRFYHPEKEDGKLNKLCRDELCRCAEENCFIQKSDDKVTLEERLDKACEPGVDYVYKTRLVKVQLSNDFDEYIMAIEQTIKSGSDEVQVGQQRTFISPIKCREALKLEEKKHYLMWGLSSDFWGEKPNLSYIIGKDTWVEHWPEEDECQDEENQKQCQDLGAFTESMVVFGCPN
UniProt Q09028: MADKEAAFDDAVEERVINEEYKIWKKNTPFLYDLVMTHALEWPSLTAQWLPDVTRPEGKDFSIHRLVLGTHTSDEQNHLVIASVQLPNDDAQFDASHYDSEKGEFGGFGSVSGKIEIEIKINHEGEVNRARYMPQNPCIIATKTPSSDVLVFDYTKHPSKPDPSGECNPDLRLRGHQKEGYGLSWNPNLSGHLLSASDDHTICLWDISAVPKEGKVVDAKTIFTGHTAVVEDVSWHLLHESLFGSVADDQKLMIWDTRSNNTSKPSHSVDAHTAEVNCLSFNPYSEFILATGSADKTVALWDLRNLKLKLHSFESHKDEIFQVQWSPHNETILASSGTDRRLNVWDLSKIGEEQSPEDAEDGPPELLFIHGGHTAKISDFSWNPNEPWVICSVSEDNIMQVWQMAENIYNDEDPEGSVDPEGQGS
UniProt Q16576: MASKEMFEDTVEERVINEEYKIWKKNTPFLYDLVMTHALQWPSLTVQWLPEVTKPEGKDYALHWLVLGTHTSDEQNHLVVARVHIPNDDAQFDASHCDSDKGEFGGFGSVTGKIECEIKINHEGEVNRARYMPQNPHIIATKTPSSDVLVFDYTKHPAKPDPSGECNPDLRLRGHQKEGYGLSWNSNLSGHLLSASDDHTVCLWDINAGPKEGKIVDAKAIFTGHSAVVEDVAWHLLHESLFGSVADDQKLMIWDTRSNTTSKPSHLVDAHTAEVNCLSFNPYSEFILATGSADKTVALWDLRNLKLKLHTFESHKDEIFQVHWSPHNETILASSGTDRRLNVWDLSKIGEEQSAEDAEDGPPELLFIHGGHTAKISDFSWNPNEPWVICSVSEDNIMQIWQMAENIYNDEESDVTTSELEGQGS
UniProt Q13547: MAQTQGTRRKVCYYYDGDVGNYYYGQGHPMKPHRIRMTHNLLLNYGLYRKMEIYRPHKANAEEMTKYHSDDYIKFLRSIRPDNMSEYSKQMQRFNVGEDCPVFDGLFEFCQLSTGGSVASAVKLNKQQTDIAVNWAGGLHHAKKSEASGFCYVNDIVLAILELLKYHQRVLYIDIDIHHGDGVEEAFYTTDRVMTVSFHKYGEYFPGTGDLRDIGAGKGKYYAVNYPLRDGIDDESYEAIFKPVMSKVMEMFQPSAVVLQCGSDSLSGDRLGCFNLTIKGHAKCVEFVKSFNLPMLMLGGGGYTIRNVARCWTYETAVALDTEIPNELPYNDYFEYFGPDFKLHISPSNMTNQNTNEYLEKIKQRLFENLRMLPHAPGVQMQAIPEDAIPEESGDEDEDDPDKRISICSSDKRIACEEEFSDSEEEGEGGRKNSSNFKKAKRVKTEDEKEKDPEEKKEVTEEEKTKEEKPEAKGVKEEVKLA
UniProt Q92769: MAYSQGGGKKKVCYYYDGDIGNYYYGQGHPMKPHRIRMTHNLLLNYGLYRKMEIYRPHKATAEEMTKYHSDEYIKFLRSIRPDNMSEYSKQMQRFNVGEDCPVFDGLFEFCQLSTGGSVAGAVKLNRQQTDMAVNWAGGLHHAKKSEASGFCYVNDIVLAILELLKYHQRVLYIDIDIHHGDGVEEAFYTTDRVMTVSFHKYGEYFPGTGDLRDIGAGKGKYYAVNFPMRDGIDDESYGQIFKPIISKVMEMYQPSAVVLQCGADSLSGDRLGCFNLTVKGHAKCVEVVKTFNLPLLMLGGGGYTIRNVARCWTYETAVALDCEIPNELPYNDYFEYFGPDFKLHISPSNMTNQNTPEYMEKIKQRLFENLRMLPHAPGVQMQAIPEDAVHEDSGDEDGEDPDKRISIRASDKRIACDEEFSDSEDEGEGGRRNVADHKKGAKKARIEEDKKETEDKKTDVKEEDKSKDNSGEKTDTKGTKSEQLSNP
UniProt Q14839: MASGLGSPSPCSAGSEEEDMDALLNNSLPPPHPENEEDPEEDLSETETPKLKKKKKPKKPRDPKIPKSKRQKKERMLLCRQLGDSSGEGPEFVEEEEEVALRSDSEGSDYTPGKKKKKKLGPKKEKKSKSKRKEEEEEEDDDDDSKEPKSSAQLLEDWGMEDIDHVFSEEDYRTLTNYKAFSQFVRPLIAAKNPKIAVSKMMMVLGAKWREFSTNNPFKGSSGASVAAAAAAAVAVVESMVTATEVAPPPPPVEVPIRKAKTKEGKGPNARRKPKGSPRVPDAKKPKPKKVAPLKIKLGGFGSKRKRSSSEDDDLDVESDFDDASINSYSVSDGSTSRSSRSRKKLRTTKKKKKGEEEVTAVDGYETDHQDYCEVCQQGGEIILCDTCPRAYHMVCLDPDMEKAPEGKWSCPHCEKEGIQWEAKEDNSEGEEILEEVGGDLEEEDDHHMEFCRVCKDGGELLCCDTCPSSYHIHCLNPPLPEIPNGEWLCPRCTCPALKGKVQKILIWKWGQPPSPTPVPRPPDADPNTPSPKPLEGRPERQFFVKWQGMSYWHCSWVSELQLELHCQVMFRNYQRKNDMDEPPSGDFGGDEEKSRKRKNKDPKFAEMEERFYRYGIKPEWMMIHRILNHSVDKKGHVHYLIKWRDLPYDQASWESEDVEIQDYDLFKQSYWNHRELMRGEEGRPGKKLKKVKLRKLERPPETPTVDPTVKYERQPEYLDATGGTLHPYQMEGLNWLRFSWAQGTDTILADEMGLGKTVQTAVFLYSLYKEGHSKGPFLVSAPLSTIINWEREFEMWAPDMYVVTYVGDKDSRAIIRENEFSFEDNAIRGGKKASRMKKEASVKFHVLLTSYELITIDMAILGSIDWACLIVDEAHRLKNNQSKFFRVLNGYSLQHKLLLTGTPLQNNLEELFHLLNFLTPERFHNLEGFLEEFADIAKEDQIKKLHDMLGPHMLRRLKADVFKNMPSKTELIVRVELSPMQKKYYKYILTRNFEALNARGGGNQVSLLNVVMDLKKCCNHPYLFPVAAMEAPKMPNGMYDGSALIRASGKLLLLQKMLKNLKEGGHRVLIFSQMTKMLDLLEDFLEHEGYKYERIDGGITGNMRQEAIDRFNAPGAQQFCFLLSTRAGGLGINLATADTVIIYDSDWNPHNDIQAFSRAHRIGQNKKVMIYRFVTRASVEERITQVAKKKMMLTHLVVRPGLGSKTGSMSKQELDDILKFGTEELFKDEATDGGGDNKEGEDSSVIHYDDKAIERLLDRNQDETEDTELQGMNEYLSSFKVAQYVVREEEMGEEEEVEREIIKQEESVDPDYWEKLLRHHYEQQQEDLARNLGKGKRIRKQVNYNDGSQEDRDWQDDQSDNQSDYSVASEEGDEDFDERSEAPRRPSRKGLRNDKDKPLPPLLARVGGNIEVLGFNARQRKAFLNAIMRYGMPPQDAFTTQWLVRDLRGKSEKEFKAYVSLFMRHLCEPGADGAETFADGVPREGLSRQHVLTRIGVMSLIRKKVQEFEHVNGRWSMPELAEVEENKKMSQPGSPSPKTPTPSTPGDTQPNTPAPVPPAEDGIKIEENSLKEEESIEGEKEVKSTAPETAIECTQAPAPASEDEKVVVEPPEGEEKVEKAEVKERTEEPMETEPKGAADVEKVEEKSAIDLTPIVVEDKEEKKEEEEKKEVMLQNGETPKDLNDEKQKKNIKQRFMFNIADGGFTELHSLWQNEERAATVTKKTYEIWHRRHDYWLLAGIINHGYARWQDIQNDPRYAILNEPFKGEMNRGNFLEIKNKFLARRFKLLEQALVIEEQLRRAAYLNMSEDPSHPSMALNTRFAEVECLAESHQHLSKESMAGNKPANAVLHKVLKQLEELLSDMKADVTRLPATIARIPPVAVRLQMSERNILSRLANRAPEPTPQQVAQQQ
UniProt Q15022: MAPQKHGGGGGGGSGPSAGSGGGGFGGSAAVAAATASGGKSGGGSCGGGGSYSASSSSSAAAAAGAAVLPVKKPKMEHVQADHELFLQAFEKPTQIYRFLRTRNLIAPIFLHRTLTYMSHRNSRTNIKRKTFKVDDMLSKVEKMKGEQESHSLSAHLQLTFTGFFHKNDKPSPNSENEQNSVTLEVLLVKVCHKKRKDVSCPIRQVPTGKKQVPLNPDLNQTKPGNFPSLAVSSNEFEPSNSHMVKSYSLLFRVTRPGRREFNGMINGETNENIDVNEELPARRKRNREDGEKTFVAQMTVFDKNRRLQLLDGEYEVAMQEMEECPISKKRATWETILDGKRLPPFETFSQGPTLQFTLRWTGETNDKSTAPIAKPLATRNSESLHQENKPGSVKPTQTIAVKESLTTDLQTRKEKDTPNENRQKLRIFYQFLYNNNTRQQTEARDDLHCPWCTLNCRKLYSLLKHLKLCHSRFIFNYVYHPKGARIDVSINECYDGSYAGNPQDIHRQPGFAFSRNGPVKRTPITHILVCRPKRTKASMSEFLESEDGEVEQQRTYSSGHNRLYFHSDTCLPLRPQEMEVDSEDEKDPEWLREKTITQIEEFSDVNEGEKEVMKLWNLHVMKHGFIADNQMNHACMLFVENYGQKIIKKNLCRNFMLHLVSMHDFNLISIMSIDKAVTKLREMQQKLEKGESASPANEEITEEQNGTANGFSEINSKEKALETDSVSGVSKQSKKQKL

B1: SDS (subunit of the SIN3A complex) (protein, UniProt Q9H7L9 1-328)
chain: MSAAGLLAPAPAQAGAPPAPEYYPEEDEELESAEDDERSCRGRESDEDTEDASETDLAKHDEEDYVEMKEQMYQDKLASLKRQLQQLQEGTLQEYQKRMKKLDQQYKERIRNAELFLQLETEQVERNYIKEKKAAVKEFEDKKVELKENLIAELEEKKKMIENEKLTMELTGDSMEVKPIMTRKLRRRPNDPVPIPDKRRKPAPAQLNYLLTDEQIMEDLRTLNKLKSPKRPASPSSPEHLPATPAESPAQRFEARIEDGKLYYDKRWYHKSQAIYLESKDNQKLSCVISSVGANEIWVRKTSDSTKMRIYLGQLQRGLFVIRRRSAA
B2: ING2 (protein, UniProt Q9H160 1-280)
chain: MLGQQQQQLYSSAALLTGERSRLLTCYVQDYLECVESLPHDMQRNVSVLRELDNKYQETLKEIDDVYEKYKKEDDLNQKKRLQQLLQRALINSQELGDEKIQIVTQMLELVENRARQMELHSQCFQDPAESERASDKAKMDSSQPERSSRRPRRQRTSESRDLCHMANGIEDCDDQPPKEKKSKSAKKKKRSKAKQEREASPVEFAIDPNEPTYCLCNQVSYGEMIGCDNEQCPIEWFHFSCVSLTYKPKGKWYCPKCRGDNEKTMDKSTEKTKKDRRSR
B3: SAP18 (protein, UniProt O00422 1-153)
chain: MAVESRVTQEEIKKEPEKPIDREKTCPLLLRVFTTNNGRHHRMDEFSRGNVPSSELQIYTWMDATLKELTSLVKEVYPEARKKGTHFNFAIVFTDVKRPGYRVKEIGSTMSGRKGTDDSMTLQSQKFQIGDYLDIAITPPNRAPPPSGRMRPY
B4: SAP30 (protein, UniProt O75446 1-220)
chain: MNGFTPDEMSRGGDAAAAVAAVVAAAAAAASAGNGTGAGTGAEVPGAGAVSAAGPPGAAGPGPGQLCCLREDGERCGRAAGNASFSKRIQKSISQKKVKIELDKSARHLYICDYHKNLIQSVRNRRKRKGSDDDGGDSPVQDIDTPEVDLYQLQVNTLRRYKRHFKLPTRPGLNKAQLVEIVGCHFRSIPVNEKDTLTYFIYSVKNDKNKSDLKVDSGVH

Key:
[1] = target: complement C3b, the activated fragment of complement component 3 (nuclear C3b of A549-PTX cells) (human (endogenous in A549)) (UniProt P01024); experiment: co-IP; endogenous proteins of A549-PTX cells; IP with anti-C3/C3b antibody (Fig. 4C, F) or anti-RBBP4/7 antibodies (Fig. 4D), immunoblotting with the indicated antibodies
[2] = target: complement C3b, the activated fragment of complement component 3 (nuclear C3b of A549-PTX cells) (human (endogenous in A549)) (UniProt P01024); experiment: SEC; nuclear proteins extracted from A549-PTX cells fractionated by size exclusion gel chromatography; fractions immunoblotted
[3] = target: RBBP4 (human (endogenous in A549)) (UniProt Q09028); experiment: co-IP; endogenous proteins of A549-PTX cells; IP with anti-C3/C3b antibody (Fig. 4C, F) or anti-RBBP4/7 antibodies (Fig. 4D), immunoblotting with the indicated antibodies
[4] = target: RBBP7 (human (endogenous in A549)) (UniProt Q16576); experiment: as above
[5] = target: His-Sumo-RBBP7 (UniProt Q16576); experiment: pull-down; purified GST-RBBP4 or His-Sumo-RBBP7 incubated with glutathione agarose resin 3 h at 4 °C, then purified C3b 4 h at 4 °C; washed with PBST (0.02% Tween-20 in PBS); immunoblot; both purified
[6] = target: purified GST-RBBP4 (UniProt Q09028); experiment: as above
[7] = target: T1, GST-tagged SAP18 (UniProt O00422); experiment: pull-down; supernatant of E. coli Rosetta (DE3) expressing the GST-tagged protein incubated with glutathione agarose resin 3 h at 4 °C, then purified C3b 4 h at 4 °C; washed with PBST (0.02% Tween-20 in PBS); immunoblot; only the binder purified
T1 sequence: B3 chain

[8] = target: GST-tagged HDAC1 (UniProt Q13547); experiment: as above
[9] = target: T2, GST-tagged ING2 (UniProt Q9H160); experiment: as above
T2 sequence: B2 chain

[10] = target: GST-tagged HDAC2 (UniProt Q92769); experiment: as above
[11] = target: complement C3b, the activated fragment of complement component 3 (nuclear C3b of A549-PTX cells) (human (endogenous in A549)) (UniProt P01024); experiment: co-IP; endogenous proteins of A549-PTX cells; IP with anti-C3/C3b antibody (Fig. 4C, F) or anti-RBBP4/7 antibodies (Fig. 4D), immunoblotting with the indicated antibodies; remark: listed apart in the source

Molecule	binding [1]	binding [2]	binding [11]	other results
CHD4 (from UniProt Q14839 1-1912)	no binding			
HDAC1 (from UniProt Q13547 1-482)	binds	binds		
HDAC2 (from UniProt Q92769 1-488)	binds	binds		
RBBP4 (from UniProt Q09028 1-425)	binds	binds		
SUZ12 (from UniProt Q15022 1-739)	no binding			
complement C3b, the activated fragment of complement component 3 (nuclear C3b of A549-PTX cells) (from UniProt P01024 23-667; P01024 749-1663)				binding [3]: binds; binding [4]: binds
purified complement component 3b (from UniProt P01024 23-667; P01024 749-1663)				binding [5]: binds; binding [6]: binds; binding [7]: binds; binding [8]: binds; binding [9]: binds; binding [10]: binds
B1			binds	
B2		binds	binds	
B3		binds	binds	
B4		binds	binds	
